Data published in paper PMC4336329 (PLoS ONE, 2015).
The whole screen tested about 310,000 compounds, of which about 14,000 (4.5%) showed an effect of 50% or more. The effect is printed as a negative number. The list shows a part of the results.

Molecular target: human ether-à-go-go-related gene (hERG) potassium channel (human, UniProt Q12809)
Test: primary screen, population patch clamp on CHO cells stably expressing hERG
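Also: peak tail current of the secondary pulse compared with the same well before compound.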

Chain of human ether-à-go-go-related gene (hERG) potassium channel (Q12809 whole entry, looked up): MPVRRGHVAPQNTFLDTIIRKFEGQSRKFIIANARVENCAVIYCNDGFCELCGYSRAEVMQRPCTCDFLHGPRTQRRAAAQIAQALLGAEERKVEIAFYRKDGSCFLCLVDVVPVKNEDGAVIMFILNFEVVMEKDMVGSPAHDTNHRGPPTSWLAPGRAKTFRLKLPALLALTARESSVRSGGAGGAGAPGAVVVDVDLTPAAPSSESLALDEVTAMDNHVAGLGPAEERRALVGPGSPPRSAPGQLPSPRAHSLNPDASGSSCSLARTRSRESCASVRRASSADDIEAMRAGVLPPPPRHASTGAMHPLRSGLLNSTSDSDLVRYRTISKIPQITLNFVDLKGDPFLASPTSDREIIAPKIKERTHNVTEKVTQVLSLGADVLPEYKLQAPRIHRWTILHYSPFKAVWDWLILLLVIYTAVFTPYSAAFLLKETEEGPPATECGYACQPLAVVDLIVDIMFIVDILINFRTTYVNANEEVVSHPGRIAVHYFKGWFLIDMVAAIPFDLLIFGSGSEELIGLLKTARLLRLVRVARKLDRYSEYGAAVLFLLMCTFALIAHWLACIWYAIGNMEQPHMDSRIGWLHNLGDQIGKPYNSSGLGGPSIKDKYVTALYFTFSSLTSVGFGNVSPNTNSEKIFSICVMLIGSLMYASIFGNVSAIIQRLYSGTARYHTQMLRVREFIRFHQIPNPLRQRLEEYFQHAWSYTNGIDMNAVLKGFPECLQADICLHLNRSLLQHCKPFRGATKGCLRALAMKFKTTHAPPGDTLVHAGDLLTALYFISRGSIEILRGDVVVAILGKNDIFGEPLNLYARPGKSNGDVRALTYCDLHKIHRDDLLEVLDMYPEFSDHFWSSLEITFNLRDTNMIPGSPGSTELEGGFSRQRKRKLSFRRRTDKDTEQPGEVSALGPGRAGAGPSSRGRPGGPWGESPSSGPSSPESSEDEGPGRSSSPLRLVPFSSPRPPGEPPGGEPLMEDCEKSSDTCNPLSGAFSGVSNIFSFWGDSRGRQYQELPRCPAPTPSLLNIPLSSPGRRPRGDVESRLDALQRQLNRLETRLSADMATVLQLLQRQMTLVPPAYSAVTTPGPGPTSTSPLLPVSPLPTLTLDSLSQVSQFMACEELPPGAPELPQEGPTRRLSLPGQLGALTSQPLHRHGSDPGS

Structure (SMILES)	hERG current change (%, negative = inhibition) at 10uM
COc1ccccc1NC(=O)Cn1c(CCC(=O)O)ccc1-c1ccc(C)cc1	3.61%
O=C(CCN1C(=O)COc2ccccc21)NCc1ccco1	4.1%
O=C(O)C(=O)O.OC(CN1CCCC1)Cn1ccc2ccccc21 (stereo not shown)	17.6%
C1CCN(Cc2nnnn2CC2CCCO2)CC1.Cl (stereo not shown)	22.1%
CC(=O)Cc1nsc(NC(=O)c2cc(-c3ccccc3Cl)oc2C)n1	13.5%
CCOc1cc(C(=O)Nc2ccon2)cc(OCC)c1OCC	-14%
O=C(CN1CCN(S(=O)(=O)c2ccccc2)CC1)Nc1ccc(Cl)c(Cl)c1	-16%
CN1CCN(c2ccc(NC(=O)c3ccc(-c4ccc(Cl)cc4)o3)cc2)CC1	11.5%
CCOC(=O)C(NC(C)=O)(N1CCc2ccccc2C1)C(F)(F)F (stereo not shown)	5.28%
O=C(c1ccc([N+](=O)[O-])cc1)N1C=CC(C(F)(F)F)=NCC1	7.28%
Cc1ccccc1C(=O)Nc1ccc2c(c1)OCCO2	6.96%
O=C(NCC1COc2ccccc2O1)C1CCCN(S(=O)(=O)c2cccc3nsnc23)C1 (stereo not shown)	-7.33%
COc1ccc(F)c(-c2nc(CN3CCC(c4ccccc4)CC3)c(C)o2)c1	-39.7%
NC1=NC2(CCCCCC2)n2c(nc3ccccc32)N1	-31.5%
O=c1c2ccccc2c(/C=N/NS(=O)(=O)c2ccccc2)c(O)n1-c1ccccn1	17.3%
Cc1cc(NC(=O)CSc2ncccn2)no1	18%
COc1cccc(-c2nnc(SCc3nc4ccccc4[nH]3)n2N)c1	-15.6%
O=C(CCNC(=O)c1ccco1)Nc1ccc(Cl)cc1F	-4.96%
O=C(CC(NCc1ccccn1)C(=O)O)Nc1ccccc1Cl (stereo not shown)	16.9%
COc1ccc(C)cc1NC(=O)CCCNC(=O)Cn1cnc2sc(C)c(C)c2c1=O	4.59%
CNC(=S)N(Cc1cc2ccc(OC)cc2[nH]c1=O)CC1CCCO1 (stereo not shown)	2.3%
O=C(CN1C(=O)CSc2ncccc21)N1CCOCC1	-6.66%
COc1ccc(S(=O)(=O)N2CCOC2CNC(=O)C(=O)NCc2cccnc2)cc1C (stereo not shown)	-6.8%

Structure (SMILES)	hERG current change (%, negative = inhibition) at 10uM
COC(=O)c1ccccc1NC(=O)Nc1c(C)n(C)n(-c2ccccc2)c1=O	11.7%
Cc1cc2ccccc2c(=O)n1CC(=O)NC1CCCCCC1	11.2%
COc1ccc(CCC(=O)NCc2ccccc2OC)cc1	10.1%
CN(c1nc(-c2ccccc2)cs1)C1CCS(=O)(=O)C1 (stereo not shown)	-16%
COc1ccc(-n2cc(CNCCc3cscn3)c(-c3ccccc3Cl)n2)cc1	-64.5%
CN(C)/C=C1/C(=O)N(c2ccc([N+](=O)[O-])cc2)N=C1c1ccccc1	-25.6%
CC(=O)Nc1cc2c(cc1NC(=O)Cn1nc(-c3ccccc3)ccc1=O)OCCO2	11.9%
O=C(NC1CCOc2ccccc21)c1ccccn1 (stereo not shown)	6.9%
O=C(c1ccc(C(F)(F)F)cc1)C1CCCN(Cc2ccncc2)C1 (stereo not shown)	-23.7%
C=C(Cl)COC(=O)[C@H]1C2C=CC(C2)C1C(=O)O (stereo partly shown)	4.93%
O=C(NC(=S)Nc1nc(-c2ccccc2)cs1)c1cccnc1	19.7%
O=C1CCCC(=O)N1c1ccc(Oc2ccc(Cl)cc2)cc1	-19.5%
O=C1CC(c2ccccc2)CCc2sccc2N1 (stereo not shown)	-5.86%
O=S(=O)(/N=C(/NS(=O)(=O)c1ccccc1)c1ccccc1)c1ccccc1	20%
CC1CCN(C(=O)CN(c2ccc3c(c2)OCO3)S(C)(=O)=O)CC1	10.3%
CC(=O)Nc1ccc(N2S(=O)(=O)c3ccccc3S2(=O)=O)cc1	2.53%
CCOc1ccc(C(=O)NCc2ccco2)cc1	3.48%
Cc1ccc(NC(=O)CCNS(=O)(=O)c2ccc3c(c2)c(=O)n(C)c(=O)n3C)cc1C	13%
CCn1c(CNC(=O)COc2ccc(C(C)C)cc2)nnc1SCC(=O)Nc1ccccc1F	-60.1%
COc1ccccc1Cn1[nH]nnc1=S	18.1%
OCCC1CN(Cc2ccc(F)cc2)CCN1CCCc1ccccc1 (stereo not shown)	-68.2%
O=C(NCc1ccncc1)C(=O)NCC1OCCCN1S(=O)(=O)c1ccccc1 (stereo not shown)	-4.44%
CCOC(=O)c1ccc(-n2c(C)nc3c(cnn3-c3ccccc3C)c2=O)cc1	1.21%
